In PubChem BioAssay AID1461 (National Center for Advancing Translational Sciences (NCATS), 2008):
About 2,300 (1%) of roughly 220,000 compounds were called active. The shares of active, inactive and inconclusive entries below differ from those in the screen. Calls follow the shape of the dose curve; as a rule, active = well fitted inhibition curve with a large enough effect; inconclusive = small, poorly fitted or top-dose-only effect, or effect the other way; inactive = no such curve, though single readings can be large or run the other way. Potencies of inconclusive entries are left out as doubtful fits.

biological target: Neuropeptide S receptor (Homo sapiens) (UniProt Q6W5P4); assay: qHTS Assay for Antagonists of the Neuropeptide S Receptor: cAMP Signal Transduction; details: CHO-NPSR cells, cAMP TR-FRET, antagonist mode; series mostly up to 38.3 µM; also: nearly all actives have a fitted effect of over 50% in size
Potency is read from the fitted curve at half-maximal effect; tags tell the direction and shape of the fitted curve.

Chain of UniProt Q6W5P4 (Q6W5P4 whole entry, looked up): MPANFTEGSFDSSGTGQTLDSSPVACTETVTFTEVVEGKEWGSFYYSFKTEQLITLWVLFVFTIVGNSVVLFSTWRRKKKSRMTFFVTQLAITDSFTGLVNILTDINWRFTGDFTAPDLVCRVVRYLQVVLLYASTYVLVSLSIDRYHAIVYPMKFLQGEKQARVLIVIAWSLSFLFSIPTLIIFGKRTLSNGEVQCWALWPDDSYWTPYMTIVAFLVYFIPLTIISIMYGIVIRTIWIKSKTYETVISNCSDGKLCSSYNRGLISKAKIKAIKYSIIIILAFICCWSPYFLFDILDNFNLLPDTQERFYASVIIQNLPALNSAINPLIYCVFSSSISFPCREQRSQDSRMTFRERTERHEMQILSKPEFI

| SMILES | Potency |
| --- | --- |
| NCCc1nnc(SCc2c(F)cccc2Cl)o1 | inconclusive [inhibitor, full curve, poor fit] |
| COc1ccc(-c2nc(-c3ccccc3)c(-c3cc([N+](=O)[O-])ccc3C)[nH]2)cc1OC | active: 7.94 µM |
| CCCCCC(=O)NC(=S)Nc1cccc(-c2nc3ncccc3o2)c1 | inconclusive [inhibitor, single point] |
| CCCCCCN(C(=O)CCCCCN1C(=O)NC(c2ccc(-c3ccccc3)cc2)C(C(=O)OCc2ccccc2)=C1C)C(C(=O)NCCCC)c1ccc(OCC(=O)OC)c(C(=O)OC)c1 (stereo unspecified) | inactive |
| CCOC(=O)c1c(NC(=O)c2ccco2)sc2c1CCCC2 | inconclusive [inhibitor, single point] |
| COc1ccc(NC(=O)c2sc(N3CCOCC3)nc2-c2ccccc2)c(OC)c1 | inconclusive [inhibitor, single point] |
| O=C(Cc1cn(Cc2cccc(Cl)c2)c2ccccc12)N1CCCCCC1 | inconclusive [inhibitor, single point] |
| Cc1ccc(S(=O)(=O)N2CCCC2C(=O)OCc2ccco2)cc1 (stereo unspecified) | inactive |
| O=C(NC(=S)NCCC1=CCCCC1)c1ccccc1Br | inconclusive [activator, single point] |
| CCOC(=O)C1=C(C)NC(=S)NC1c1ccc(-c2cccc(Cl)c2C)o1 (stereo unspecified) | inactive |
| CC1(C)Cc2c(C#N)c(N3CCN(C(=O)c4ccccc4)CC3)nc(-c3ccco3)c2CS1 | inconclusive [inhibitor, single point] |
| Cc1ccc(NS(=O)(=O)c2ccc(Cl)c(NC(=S)NC(=O)C3CCCCC3)c2)cc1Cl | inconclusive [inhibitor, single point] |
| CC(=O)Nc1ccc(S(=O)(=O)NNC2=NS(=O)(=O)c3ccccc32)cc1 | inactive |
| CC(C)Cn1c(SCC(=O)Nc2cccc(S(N)(=O)=O)c2)nc2ccccc2c1=O | inactive |
| N=c1c2c(-c3ccccc3)c(-c3ccccc3)n(Cc3ccccc3)c2ncn1CCCn1ccnc1 | inconclusive [inhibitor, single point] |
| CCCCn1c(=N)n(CC(=O)c2ccc(Br)s2)c2ccccc21 | inconclusive [activator, partial curve] |
| CCCC(=O)Nn1cnc2c(c1=O)C1(CCCCC1)Cc1ccccc1-2 | inactive |
| O=C(NCCc1csc(-c2cccnc2)n1)c1ccc(Br)o1 | inactive |
| CCCCCCNC(=O)N[C@H](C(=O)NCCC[C@H]1CN2C(=NC[C@H]2C)N1CCC(c1ccccc1)c1ccccc1)C(C)O (stereo partly specified) | active: 10 µM |
| CN(CC(=O)Nc1nc2ccccc2s1)S(=O)(=O)c1ccc(Cl)cc1 | inconclusive [inhibitor, single point] |
| O=c1ccc2c(OCCCCc3ccccc3)c3ccoc3cc2o1 | inconclusive [inhibitor, partial curve] |
| CCc1nc(SCC(=O)N2CCN(C(=O)c3ccco3)CC2)c2c3c(sc2n1)CCCC3 | inconclusive [inhibitor, partial curve, poor fit] |
| COc1ccc2c(c1)c(=O)cc(-c1ccccc1)n2C | inconclusive [activator, full curve, poor fit] |
| CCN(CC)S(=O)(=O)c1cccc(-c2nnc(SCCCC(=O)c3ccc(F)cc3)o2)c1 | inconclusive [inhibitor, single point] |

| SMILES | Potency |
| --- | --- |
| CCOc1ccc(-n2c(C)nc3cc(C(=O)NCc4ccco4)ccc32)cc1 | inactive |
| COc1ccc(OC)c(NC(=O)c2[nH]c(C)c(C(C)=O)c2C)c1 | inconclusive [inhibitor, single point] |
| CC(=O)Nc1nnc(SCC(=O)NCC2CCCO2)s1 (stereo unspecified) | inconclusive [inhibitor, partial curve] |
| Cc1ccc(S(=O)(=O)c2c(C)cc(C)nc2Oc2cccc(C(F)(F)F)c2)cc1 | inconclusive [inhibitor, partial curve] |
| CSC1=NCCN1S(=O)(=O)c1ccc(C)cc1 | inactive |
| Cc1ccn2c(NC3CCCC3)c(-c3cccs3)nc2c1 | inconclusive [inhibitor, single point] |
| COc1cc(NC(=O)CN2C(=O)C(c3ccccc3)=NC2(C)C)cc(OC)c1 | inconclusive [activator, single point] |
| CCO[C@@H]1OC(C(=O)Nc2ccccc2)=C[C@H](c2ccc(C(F)(F)F)cc2)[C@H]1CCCO | inconclusive [activator, partial curve] |
| CCOC(=O)N1CCN(c2cc(=O)n(-c3ccc(Br)cc3)c(=O)[nH]2)CC1 | inactive |
| COc1ccc(CNc2ncnc3c2[nH]c2cc(OC)c(OC)cc23)cc1 | inactive |
| COc1ccc(N=C2S/C(=C\c3ccc(C)o3)C(=O)N2CC(C)C)cc1 | inconclusive [inhibitor, single point] |
| CSc1nc(=S)c2[nH]c(=S)[nH]c2[nH]1 | inconclusive [activator, partial curve] |
| CC(C)Oc1ccc(/C=N/NC(=O)C2CCCN2S(=O)(=O)c2ccc(Cl)cc2)cc1 (stereo unspecified) | inconclusive [inhibitor, single point] |
| CN(c1ccc(C(=O)Nc2ccccc2Sc2ccccc2)cc1)S(C)(=O)=O | inconclusive [inhibitor, single point] |
| C#C[C@]1(O)CC[C@H]2C3CCC4=Cc5oncc5CC4(C)C3CCC21C (stereo partly specified) | inconclusive [inhibitor, single point] |
| Cc1nc2c(=O)n(C)c(=O)[nH]c2n1Cc1ccccc1 | inactive |
| O=C(Cn1ncn2c(cc3ccccc32)c1=O)NCc1ccco1 | inconclusive [inhibitor, partial curve] |
| Nc1cc(N)nc(SCC(=O)c2ccccc2)n1 | inactive |
| CSc1nc2sc3c(c2c(=O)n1C)CCC(C)C3 (stereo unspecified) | inactive |
| CSc1oc(-c2ccccc2)nc1S(=O)(=O)c1ccc(C)cc1 | inconclusive [inhibitor, partial curve, poor fit] |
| Cc1nc2cc(-c3cccc(Cl)c3)nn2c(N2CCN(C(=O)c3ccco3)CC2)c1C | inconclusive [inhibitor, partial curve, poor fit] |
| CCCCOc1ccc(C(=O)O)cc1 | inactive |
| CCOC(=O)C(C)(C)Sc1nc2c(cnn2-c2ccc(Cl)cc2)c(=O)[nH]1 | inconclusive [activator, single point] |
| CC(C)OC(=O)CC(=O)CSc1nc(-c2ccc(F)cc2)cc(-c2ccccc2)c1C#N | inconclusive [inhibitor, single point] |

| SMILES | Potency |
| --- | --- |
| Cc1ccc(C2CC(C(F)(F)F)n3ncc(C(=O)NCc4ccco4)c3N2)cc1 (stereo unspecified) | inconclusive [inhibitor, single point] |
| Cc1ccc(-c2cc3ncc(C#N)c(N)n3n2)cc1 | inconclusive [inhibitor, single point] |
| COc1ccc(/C=C/C(=O)OCC(=O)NC(=O)NC(C)(C)C)cc1 | inactive |
| O=c1n(Cc2ccccc2)c2cc(Cl)cnc2n1Cc1ccccc1 | inconclusive [inhibitor, single point] |
| CCOc1ccc(C(=O)c2cnc3ccccc3c2N2CCN(CC)CC2)cc1 | inactive |
| Cn1c(=O)oc2cc(S(=O)(=O)N3CCCC(C(=O)Nc4ccc5c(c4)OCCO5)C3)ccc21 (stereo unspecified) | inactive |
| CCOC(=O)c1c(-c2ccc(C)cc2C)csc1NC(=O)CSc1nnnn1C | inconclusive [inhibitor, single point] |
| Cc1nc(NCCc2ccc(S(N)(=O)=O)cc2)c2c(C)c(C)sc2n1 | inactive |
| COc1ccc(C2C=C(C34CC5CC(CC(C5)C3)C4)NC(=S)N2)cc1OC (stereo unspecified) | inactive |
| Cc1ccc2c(c1)nnn2C1CCN(C(=O)NC23CC4CC(CC(C4)C2)C3)CC1 | inactive |
| CCc1cc2c(=O)c(-c3cnn(-c4ccccc4)c3)c(C)oc2cc1OCC(=O)Nc1ccc(F)c(F)c1 | active: 7.94 µM |
| CCOc1ccc(-c2cc(N)n(S(=O)(=O)c3ccc(OC)c(OC)c3)n2)cc1 | inactive |
| COc1ccc(OC)c(NC(=O)N[C@H](Cc2ccccc2)C(=O)NN)c1 | inconclusive [activator, single point] |
| O=c1cc(O)c2sc(Nc3ccc(F)cc3)nc2[nH]1 | inactive |
| N#CCCN1CCCc2cc(N=Nc3ccc(C(F)(F)F)cc3)ccc21 | inconclusive [activator, partial curve] |
| Cn1cc(/C=N/n2cnc3scc(-c4ccccc4)c3c2=O)c2ccccc21 | inactive |
| CCCCCc1ccc(S(=O)(=O)NCCc2ccncc2)cc1 | inactive |
| Cc1ccc(NC(=O)C(C)N2C(=O)C3CC=C(Cl)CC3C2=O)cc1 (stereo unspecified) | inconclusive [inhibitor, single point] |
| CC(=O)c1sc(NC(=O)COc2ccc(Br)cc2)nc1C | inconclusive [activator, single point] |
| CCOc1ccccc1C1CC(c2ccc(Br)cc2)Nc2nc(N)nn21 (stereo unspecified) | inactive |
| Cc1nn(C(C)(C)C)c(OC(=O)C2CCCC2)c1S(=O)(=O)c1ccccc1 | inconclusive [inhibitor, single point] |
| O=C(CCN1CCc2ccccc2C(c2ccccc2)C1)c1ccc2c(c1)OCCO2 (stereo unspecified) | inconclusive [inhibitor, single point] |
| CCOC(=O)C1(CC2CCCCO2)CCN(Cc2cc3ccccc3[nH]2)CC1 (stereo unspecified) | inactive |
